This note sets out measurements from patent US20260200997A1 (REPLIGEN, published 2026).

Assay [1] addresses T1, Haptoglobin protein (UniProt P00738 19-160; P00738 162-406, limits assumed).
T1 construct: The background describes it as two alpha/beta dimers; also called Hp
T1 sequence (looked up) 1: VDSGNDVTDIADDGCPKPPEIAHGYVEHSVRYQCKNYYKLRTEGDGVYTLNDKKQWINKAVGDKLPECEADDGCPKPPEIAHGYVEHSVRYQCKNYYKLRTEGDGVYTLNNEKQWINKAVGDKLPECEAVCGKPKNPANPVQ
T1 sequence (looked up) 2: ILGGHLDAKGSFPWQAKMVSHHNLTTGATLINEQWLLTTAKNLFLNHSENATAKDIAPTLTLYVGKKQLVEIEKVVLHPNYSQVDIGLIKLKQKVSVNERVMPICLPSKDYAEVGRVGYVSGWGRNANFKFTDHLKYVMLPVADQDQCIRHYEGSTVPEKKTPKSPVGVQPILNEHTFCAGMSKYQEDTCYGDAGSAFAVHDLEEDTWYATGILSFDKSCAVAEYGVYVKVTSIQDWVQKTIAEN
The experiment in a line: BLI; ligand held 8 h in 0.25 M NaOH, neutralised, against untreated ligand. How it is done: (§1) Biotinylated ligands were immobilized on sensors and incubated with solutions containing Haptoglobin protein at various concentrations. The binding curves were fitted with a 1:1 binding model using the ForteBio software to determine the affinity and the resulting data is shown in the table below. As expected, all affinity agents bind to Haptoglobin protein with high affinity.
Ligands were incubated in 0.25 M NaOH for 8 hours and then neutralized. The binding of the NaOH treated ligands was measured as described in Example 1 and compared to untreated ligand. The binding retained was calculated according to the following formula: […]
In general terms: Biolayer interferometry detects binding as a change in optical thickness at a sensor tip.

Assay [2] concerns the target T1, Haptoglobin protein. The experiment in a line: BLI (ForteBio), biotinylated ligand on sensor, haptoglobin in solution, 1:1 fit. As for the experimental part:
as §1

For the next assay, the target named is T2, serum albumin (human, UniProt P02768 25-609).
T2 construct: mature
Put plainly: affinity column purification from Cohn Fraction V, eluate on reducing 4-20% Tris-glycine SDS-PAGE. How it is done:
Packed columns were used to purify haptoglobin protein from Cohn Fraction V of human plasma with a measured titer of haptoglobin of 0.9 mg/mL. Resins were prepared from ligands corresponding to SEQ ID NO. 118.
Eluate fractions from each purification cycle were collected and purity was analyzed via SDS-PAGE. The data is shown in FIG. 5 and confirms high purity provided by the affinity agent, with a notable absence of serum albumin in the elution fraction. Purity was also assessed by analytical RP-HPLC. Percent purity was calculated by comparing peak area of haptoglobin protein to total area of all peaks in the analysis. The data are shown in FIG. 6 and confirm consistent purification performance across dozens of simulated cycles after exposure to >25 hours of exposure to 0.25 M sodium hydroxide. Yield was determined using analytical RP-HPLC by comparing peak area for haptoglobin in cycle #1 to all subsequent cycles. The data are show in FIG. 7 and confirm that the resin can be cleaned with NaOH and reused for multiple cycles.

Sequence of serum albumin (P02768 25-609): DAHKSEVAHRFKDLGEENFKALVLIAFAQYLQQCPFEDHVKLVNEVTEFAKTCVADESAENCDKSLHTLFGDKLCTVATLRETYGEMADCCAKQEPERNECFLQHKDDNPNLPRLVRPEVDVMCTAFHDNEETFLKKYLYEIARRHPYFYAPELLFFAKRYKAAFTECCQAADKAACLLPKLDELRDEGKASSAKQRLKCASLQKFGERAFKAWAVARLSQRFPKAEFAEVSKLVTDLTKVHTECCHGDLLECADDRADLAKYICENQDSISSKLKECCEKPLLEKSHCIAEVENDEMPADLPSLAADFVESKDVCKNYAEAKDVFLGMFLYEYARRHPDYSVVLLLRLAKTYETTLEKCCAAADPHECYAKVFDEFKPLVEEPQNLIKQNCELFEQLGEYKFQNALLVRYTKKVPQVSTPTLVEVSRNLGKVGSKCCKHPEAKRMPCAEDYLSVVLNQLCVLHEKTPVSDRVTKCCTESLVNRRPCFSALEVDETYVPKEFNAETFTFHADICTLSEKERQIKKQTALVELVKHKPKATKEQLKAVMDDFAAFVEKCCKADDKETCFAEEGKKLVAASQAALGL

B1: SEQ ID NO 39 (designed binder)
chain: MAQGTVDAKFDKELEEARAEIERLPNLTEVQRRNFIDHLRLDPSHSAALLALAKGWNDHQAPKAAACGLNDIFEAQKIEWHEHHHHHH
modifications: biotinylated (Avitag system)
notes: 3 helical bundle ligand with Avitag and His tag; N-terminal Met may be absent; also called 39
B1: the “Binding retained after 8 hour exposure to 0.25M NaOH (%)” value (from here on “Binding retained … (%)”) with Haptoglobin protein [1] came out at 96%. The same molecule had a Kd with Haptoglobin protein [2] of 2 nM.

B2: SEQ ID NO 40 (designed binder)
chain: MAQGTVDAKFDKELEEARAEIERLPNLTEIQRRSFIQALRGDPSSSAGLLAVAKRWNDKQAPKAAACGLNDIFEAQKIEWHEHHHHHH
modifications: biotinylated (Avitag system)
notes: 3 helical bundle ligand with Avitag and His tag; N-terminal Met may be absent; also called 40
With B2, the “Binding retained … (%)” value with Haptoglobin protein [1] came to 87%. This molecule also showed a Kd with Haptoglobin protein [2] of 1 nM.

B3: SEQ ID NO 41 (designed binder)
chain: MAQGTVDAKFDKELEEARAEIERLPNLTELQRREFILALRIDPSLSAGLLATAKGWNDKQAPKAAACGLNDIFEAQKIEWHEHHHHHH
modifications: biotinylated (Avitag system)
notes: 3 helical bundle ligand with Avitag and His tag; N-terminal Met may be absent; also called 41
For the molecule B3, the “Binding retained … (%)” value with Haptoglobin protein [1] was 91%. In the assay with Haptoglobin protein [2], the Kd is less than 1 nM.

B4: SEQ ID NO 42 (designed binder)
chain: MAQGTVDAKFDKELEEARAEIERLPNLTEQQRRSFIDALRLDPSESASLLAIAKGWNDRQAPKAAACGLNDIFEAQKIEWHEHHHHHH
modifications: biotinylated (Avitag system)
notes: 3 helical bundle ligand with Avitag and His tag; N-terminal Met may be absent; also called 42
For B4, in the assay with Haptoglobin protein [1], the “Binding retained … (%)” value came to 99%. This molecule also came in with a Kd with Haptoglobin protein [2] of less than 1 nM.

B5: SEQ ID NO 43 (designed binder)
chain: MAQGTVDAKFDKELEEARAEIERLPNLTEVQRREFIDYLRLDPSQSAALLAIAKSWNDSQAPKAAACGLNDIFEAQKIEWHEHHHHHH
modifications: biotinylated (Avitag system)
notes: 3 helical bundle ligand with Avitag and His tag; N-terminal Met may be absent; also called 43
For the molecule B5, the “Binding retained … (%)” value with Haptoglobin protein [1] is 87%. Also, the Kd in the assay with Haptoglobin protein [2] is less than 1 nM.

B6: SEQ ID NO 118 (designed binder)
chain: MVDAKFDKELEEARAEIERLPNLTEEQRRNFIQALRDDPSSSAGLLALAKHWNDKQAPKVDAKFDKELEEARAEIERLPNLTEEQRRNFIQALRDDPSSSAGLLALAKHWNDKQAPKVDAKFDKELEEARAEIERLPNLTEEQRRNFIQALRDDPSSSAGLLALAKHWNDKQAPKAAAHHHHHHC
modifications: conjugated to bromoacetate-derivatised agarose beads (Praesto Jetted A50)
notes: Three repeats of the 3 helical bundle domain in one chain with a C-terminal His tag and Cys; N-terminal Met may be absent; also called 118
Take B6: the binding result with serum albumin is “no binding”.

Usually Kd stands for the concentration at which binding is half-saturated. A lower Kd goes with a tighter complex.
